Here are results for 99 compounds from article PMC6919601, “Identification of Plasmodium dipeptidyl aminopeptidase allosteric inhibitors by high throughput screening” (PLoS ONE, 2019).

Among all 110,000 compounds or so, about 230 (0.21%) showed an effect of 50% or more. The list shows a part of the results.
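Further: 30 min substrate incubation versus DMSO and 10 µM JCP410 controls.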

Sequence of DPAP1 (Q8IIJ9 whole entry, looked up): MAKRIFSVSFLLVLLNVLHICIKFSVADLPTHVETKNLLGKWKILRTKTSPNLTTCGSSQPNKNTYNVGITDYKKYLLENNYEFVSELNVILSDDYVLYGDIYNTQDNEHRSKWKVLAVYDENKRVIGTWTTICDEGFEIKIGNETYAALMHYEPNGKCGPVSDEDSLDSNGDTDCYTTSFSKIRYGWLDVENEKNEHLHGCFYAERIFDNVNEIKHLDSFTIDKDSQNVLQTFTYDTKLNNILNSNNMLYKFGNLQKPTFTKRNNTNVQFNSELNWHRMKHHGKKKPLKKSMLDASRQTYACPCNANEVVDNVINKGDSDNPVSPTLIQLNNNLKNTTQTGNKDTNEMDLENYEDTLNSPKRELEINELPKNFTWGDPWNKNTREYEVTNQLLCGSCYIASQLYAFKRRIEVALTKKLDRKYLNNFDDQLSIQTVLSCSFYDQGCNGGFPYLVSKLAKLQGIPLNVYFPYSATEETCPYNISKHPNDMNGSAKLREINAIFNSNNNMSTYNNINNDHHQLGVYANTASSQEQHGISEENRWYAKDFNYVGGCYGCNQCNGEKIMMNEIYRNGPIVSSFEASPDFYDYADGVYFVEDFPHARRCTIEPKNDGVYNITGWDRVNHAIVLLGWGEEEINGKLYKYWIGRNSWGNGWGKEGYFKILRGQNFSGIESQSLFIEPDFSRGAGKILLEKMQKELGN

This experiment addresses DPAP1 (Plasmodium falciparum, UniProt Q8IIJ9). The experiment in a line: primary screen, percent inhibition; read by cleavage of a fluorogenic dipeptide substrate; higher = more effect of the substance. More on the design: species or system P. falciparum D10 trophozoite lysates; single well.
For `COc1cc2c(c(OC)c1OC)CC(=O)N(C)CC2`, the “% Inhibition @ 10 uM” value is on record as 1.67%. Consider `COc1cc(CNCCO)cc(Cl)c1OCc1ccc(Cl)cc1`, for which the “% Inhibition @ 10 uM” value is reported as -5.31%.

In the case of `COc1ccc(C2C(C#N)=C(N)Oc3c2c(C)nn3-c2ccc(C)cc2)cc1` (stereo not drawn), the “% Inhibition @ 10 uM” value is recorded as -2.54%. As to `CC1=C(C(=O)OC2CCCCC2)C(c2cccc(F)c2)C2=C(O)CC(C)(C)CC2=N1` (stereo not drawn), the “% Inhibition @ 10 uM” value came out at 4.38%. Take `Cc1cccn2c(=O)c(/C=C(\C#N)C(N)=O)c(Oc3ccccc3F)nc12`: the “% Inhibition @ 10 uM” value is -1.43%.

Consider `CC(Oc1ccc(C(C)(C)C)cc1)C(=O)Nc1ccc2c(c1)OCCO2` (stereo not drawn), for which the “% Inhibition @ 10 uM” value was found to be 7.82%. As to `CC1CCCC(N2CNc3nc4ccccc4n3C2)C1C` (stereo not drawn), the “% Inhibition @ 10 uM” value is 2.1%.

In the case of `Cn1cccc1CNCc1ccc(F)cc1`, the “% Inhibition @ 10 uM” value was -5.4%. Then `CC[C@H](C)[C@H](NC(=O)c1cccc(C(N)=O)c1)C(=O)N[C@@H](CCc1ccccc1)C(=O)COCc1ccccc1`, with -9.15%. Then `CCCCC(=O)Nc1c(C(=O)c2ccc(F)cc2)oc2ccccc12`, with -2.91%; and `COCCNC(=O)c1cnn2c1NC(c1ccc(F)cc1)CC2C(F)(F)F` (stereo not drawn), with -5.07%. Then `COc1ccc(C2N(C(=O)c3ccccc3)CCN2C(=O)c2ccc(C)cc2)cc1` (stereo not drawn), with -5.63%. As to `CC(Sc1nc2c(c(=O)n(C)c(=O)n2C)n1Cc1cccc(C(F)(F)F)c1)C(=O)O` (stereo not drawn), the “% Inhibition @ 10 uM” value is recorded as 15.4%. Then `CC1CCCCN1CCCNC(=O)Cn1ncc2c3ccccc3n(Cc3ccc(F)cc3)c2c1=O` (stereo not drawn), with -3.35%; and `C=CCOc1cccc(C2c3c(oc4ccc(C)cc4c3=O)C(=O)N2CCOC)c1` (stereo not drawn), with 2.31%; and `COc1cc(NC(=O)Cc2ccc(OC)c(OC)c2)c2ncccc2c1`, with 1.62%. Turning to `COc1cccc(C(=O)Nc2nc3c(Cl)cccc3s2)c1OC`, the “% Inhibition @ 10 uM” value is recorded as 2.17%.

Take `CC1(C)CC(O)=C(C(=O)c2ccccc2)/C(=N/CCc2nc3ccccc3[nH]2)C1`: the “% Inhibition @ 10 uM” value is recorded as -2.19%. Turning to `CC(C)CNC(=O)C(=O)Nc1ccc(Cl)c(Cl)c1`, the “% Inhibition @ 10 uM” value is reported as 1.29%. For `CCOC(=O)c1[nH]c(C)c(C(=O)c2ccc(C)cc2)c1C` the value was 2.54%; for `COc1cc(OC)c(/C=C2\C(=O)NC(=O)N(C)C2=O)c(OC)c1`, -2.48%. Then `O=C(c1nc(SCc2ccc(F)cc2)ncc1Cl)N1CCN(Cc2ccccc2)CC1`, with 4%. For `COc1ccc(S(N)(=O)=O)cc1-c1nnc2c3ccccc3c(C)nn12`, the “% Inhibition @ 10 uM” value is reported as 3.93%.

For `COc1ccc(-c2nnc(SCC(=O)O)n2C)cc1`, the “% Inhibition @ 10 uM” value came out at 0.503%. For `CCOc1cc(CN2CCN(c3ccccc3F)CC2)ccc1O` the value was -1.98%; for `Cc1cc(NC(=O)c2cccc(S(=O)(=O)N3CC(c4ccccc4)CC3=O)c2)no1` (stereo not drawn), -0.834%; for `COc1ccccc1C1C2=C(O)CC(C)(C)CC2=NC(C)=C1C(=O)Nc1ccc(F)cc1` (stereo not drawn), 2.51%. Consider `O=C(CSc1ncnc2c1sc1ccccc12)NC1CCCCC1`, for which the “% Inhibition @ 10 uM” value is recorded as 4.47%. Then `CCCCn1c(=O)c(C(=O)Nc2nccs2)c(O)c2ccccc21`, with -4.48%; and `COCCNC(=O)c1csc2c1CCCC2`, with -1.44%; and `CC1=C(C)CC(C(=O)NCCCCc2ccccc2)C(C(=O)O)C1` (stereo not drawn), with -4.77%. Then `CC(C)c1ccc(C2C(C#N)=C(N)Oc3cc(O)ccc32)cc1` (stereo not drawn), with 9.92%. For `CCCNC(=O)C1CSC2(CCN(C)CC2)N1C(=O)CC` (stereo not drawn) the value was -3.62%; for `CCCN1CCC(N(CCC)CC2CC2)CC1`, -3.6%; for `COCC(C)NC1CCCCCCC1` (stereo not drawn), -1.81%. As to `COc1ccccc1CNCc1c(C(=O)O)n(Cc2ccc(F)cc2)c2cc(C)ccc12`, the “% Inhibition @ 10 uM” value is 3.9%. Take `O=C1NC(=O)C(=Cc2ccc(Sc3ccc(Cl)cc3)o2)C(=O)N1`: the “% Inhibition @ 10 uM” value worked out at 4.86%. For `COc1ccc(CC2(CN3CCCCC3)C(=O)N(C)C(=O)N(C)C2=O)cc1OC` the value was 0.503%. For `Cc1nnc(SCC(=O)NCCN2CCCCCC2)c2nn(-c3ccccc3)c(C)c12` the value was -4.94%. For the compound `Brc1ccc(-c2nc(-c3ccccc3)cc(N3CCOCC3)n2)cc1`, the “% Inhibition @ 10 uM” value was determined as 2.65%. For `CC1CCN(CCCNC(=O)CN2N=C(c3ccccc3)CCC2=O)CC1`, the “% Inhibition @ 10 uM” value is reported as -1.21%.

For `CC(C)(C)C(=O)NC1(C(F)(F)F)NC(=O)N(Cc2ccccc2)C1=O` (stereo not drawn), the “% Inhibition @ 10 uM” value amounted to 0.0451%. With `O=C(c1ccccc1Br)N(C1CCCCC1)C1CCCCC1`, the “% Inhibition @ 10 uM” value turned out to be 2.23%. Then `Cc1cc(N)n(-c2ncnc3scc(-c4ccc(Cl)cc4)c23)n1`, with -6.17%. Turning to `COc1cc(C2c3c(oc4ccccc4c3=O)C(=O)N2c2nc(C)c(C)s2)cc(OC)c1OC` (stereo not drawn), the “% Inhibition @ 10 uM” value was 0.189%. Then `COc1ccc(-c2nonc2NC(=O)c2cc(OC)c(OC)c(OC)c2)cc1`, with 2.29%; and `CCCCNC(=O)c1cc2c(=O)n3cccc(C)c3nc2n1C`, with -3.41%; and `CCOc1ccc(CCNC(=O)Cn2c(-c3ccc(F)cc3)cc(C(C)=O)c2C)cc1OCC`, with -0.176%. Take `COc1ccc(-c2cc(C(F)(F)F)n3nc(C(=O)NCC4CCCO4)c(Cl)c3n2)cc1OC` (stereo not drawn): the “% Inhibition @ 10 uM” value is -0.413%. Then `CCOC(=O)c1cc(C)n(Cc2ccc(OCC)c(OC)c2)c1C`, with 3.47%; and `CN(c1ccccc1)c1nc(=O)c2sc3ccccc3c2s1`, with 0.215%; and `Cc1ccc(NC(=O)c2ccc(Cn3nc(C)c(Br)c3C)o2)cc1F`, with 4.84%. With `CC(C)(C)OC(=O)N[C@@H](Cc1cc(I)c(O)c(I)c1)C(=O)NCC#N`, the “% Inhibition @ 10 uM” value is 4.63%. For `COc1cccc(OC)c1C(=O)Nc1ccc(Cl)c(Cl)c1`, the “% Inhibition @ 10 uM” value is reported as 3.1%. With `COc1ccc(S(=O)(=O)Cc2ccc(C(=O)NCc3cccnc3)o2)cc1`, the “% Inhibition @ 10 uM” value came out at 2.14%.

Turning to `Cc1ccc(S(=O)(=O)N(C)C)cc1NC(=O)C12CCC(C)(C(=O)C1=O)C2(C)C` (stereo not drawn), the “% Inhibition @ 10 uM” value is on record as -10.7%.

In the case of `CSc1nc2ccccc2n1CC(=O)Nc1ccccc1`, the “% Inhibition @ 10 uM” value is on record as -1.64%.

Take `O=C(CC1Sc2ccccc2NC1=O)Nc1cccnc1` (stereo not drawn): the “% Inhibition @ 10 uM” value is recorded as -6.02%. Consider `c1ccc(CN2CCC(Nc3nc4ccccc4n4nnnc34)CC2)cc1`, for which the “% Inhibition @ 10 uM” value was determined as 1.15%. Turning to `COc1ccc(-c2nc3ccccc3o2)cc1N`, the “% Inhibition @ 10 uM” value was determined as 6.86%. For `COc1cccc(C(=O)Nc2nc(-c3nnn(-c4ccccc4C)c3C)ns2)c1` the value was -0.835%; for `Cc1oc(-c2ccc(Cl)cc2)nc1CN1CCC(C(=O)NCCCN2CCCC2=O)CC1`, 2.37%. Consider `COc1ccc(C2(C(=O)NCCc3ccc(OC)c(OC)c3)CCOCC2)cc1`, for which the “% Inhibition @ 10 uM” value is -0.958%. For `O=C(c1ccccc1)c1cc(Cl)ccc1NC(=O)C(F)(F)F` the value was -0.303%; for `Cc1c(Cl)cccc1-c1ccc(CNCCSc2nnnn2C)o1`, -7.24%. Then `CCN(Cc1ccccc1)S(=O)(=O)c1ccc2oc(C(=O)O)c(C)c2c1`, with -2.26%; and `CCCc1nc2c(o1)CC(CC(C)SCC)CC2=O` (stereo not drawn), with 2.4%. For `CC1CCCC(NC(=O)C2c3ccccc3C(=O)N2CCc2ccccc2)C1C` (stereo not drawn), the “% Inhibition @ 10 uM” value stood at 2.93%. Then `COc1ccc(CCNC(=O)c2sc3nc4n(c(=O)c3c2C)CCCC4)c(OC)c1`, with -0.205%; and `Cc1ccc(C)c(CN2CCN(c3cccc(Cl)c3)CC2)c1`, with -4.61%; and `Cc1n[nH]c(C)c1CCCOc1ccccc1Cl`, with -2.12%. For `CCCCOC(=O)c1ccc(NC(=O)c2ccc([N+](=O)[O-])cc2)cc1` the value was -5.51%; for `Cc1ccc(-c2cc(C(F)F)n3ncc(C(=O)N4CCSCC4)c3n2)cc1`, -7.58%; for `CCc1ccc(C2CC(c3ccc(OC)c(OC)c3OC)n3nnnc3N2)cc1` (stereo not drawn), 3.32%.

Turning to `COc1ccccc1CNC(=O)CN(c1ccc(F)cc1)S(=O)(=O)c1ccc2c(c1)OCCO2`, the “% Inhibition @ 10 uM” value was determined as 1.1%.

As to `COc1ccc(NC(=O)COc2ccc(Cl)cc2)cc1NC(=O)c1ccco1`, the “% Inhibition @ 10 uM” value is -9.6%. Consider `Cc1ccc(CNC(=O)Cn2cc(S(=O)(=O)Cc3ccc(F)cc3)c3ccccc32)cc1`, for which the “% Inhibition @ 10 uM” value came out at 1.25%. For `CC(C)c1[nH]nc2c1C(c1c[nH]nc1-c1ccc(F)cc1)C(C#N)=C(N)O2` (stereo not drawn) the value was 5.48%; for `Cc1cccc(NC(=O)c2nc[nH]n2)c1C`, -6.07%. Regarding `CCCCCC(=O)Nc1cc(OC)ccc1OC`, the “% Inhibition @ 10 uM” value was -1.98%. Then `CCc1ccc(N2C(=O)C(Cl)=C(N3CCCCC3)C2=O)cc1`, with -1.07%; and `COc1ccc(C2c3cc(OC)c(OC)cc3CCN2C(=O)c2ccco2)cc1OC` (stereo not drawn), with -2.79%; and `O=C1c2oc3ccccc3c(=O)c2C(c2ccc(F)cc2)N1CCCN1CCOCC1` (stereo not drawn), with 3.93%. As for `COCCN1C(=O)c2ccccc2C(C(=O)NCc2ccccc2OC)C1c1cn(C)c2ccccc12` (stereo not drawn), the “% Inhibition @ 10 uM” value is listed as 2.42%. For `COCCN1Cc2cccc(C(=O)NCc3ccccc3OC)c2C1=O` the value was -2.29%; for `CN(C)CCCNC(=O)C12CC3CC(CC(C3)C1)C2`, 10.1%. As to `O=C(O)c1ccc2[nH]c(-c3cc4ccc(O)cc4oc3=O)nc2c1`, the “% Inhibition @ 10 uM” value was found to be 3.96%.

Consider `CCOC(=O)c1cnn2c(C(F)F)cc(C3CC3)nc12`, for which the “% Inhibition @ 10 uM” value worked out at 0.0289%.

Take `CC(C)S(=O)(=O)c1oc(-c2cccs2)nc1S(=O)(=O)c1ccccc1`: the “% Inhibition @ 10 uM” value is listed as 3.74%. Regarding `CC(C)C(=O)O/N=C(\N)c1ccccn1`, the “% Inhibition @ 10 uM” value came out at 3.72%.

`CC1(C)CC(=O)c2sc(NS(=O)(=O)c3ccc(Cl)cc3)nc2C1`: the “% Inhibition @ 10 uM” value was -11.5%.

For `O=C(COc1ccc(Cl)cc1)NCc1ccccc1`, the “% Inhibition @ 10 uM” value is reported as -1.78%. Then `CCCN(Cc1cccs1)C(=O)NC12CC3CC(CC(C3)C1)C2`, with -1.08%; and `Clc1ccc(-c2noc(C3CCCCC3)n2)cc1`, with -4.11%. For the compound `O=S(=O)(Nc1ccccc1C(F)(F)F)c1ccc(F)cc1`, the “% Inhibition @ 10 uM” value is -10.5%. Consider `COc1ccccc1CN1CCCC(C(=O)N(C)Cc2ccccc2)C1` (stereo not drawn), for which the “% Inhibition @ 10 uM” value is reported as 4.84%. Take `Cc1cc(C(=O)O)c(NC(=O)c2ccc(C(C)(C)C)cc2)s1`: the “% Inhibition @ 10 uM” value is recorded as -6.25%.

Regarding `COc1ccc(/C=C2\NC(=O)c3ccccc3C2=O)cc1`, the “% Inhibition @ 10 uM” value is -3.8%.

As to `Cc1nn(CC(=O)NC2CCc3ccccc32)c(=O)c2ccccc12` (stereo not drawn), the “% Inhibition @ 10 uM” value came out at 5.43%.
